According to patent US20250115594A1, “ANTIBACTERIAL AGENTS: SOLUBLE SALTS AND AQUEOUS FORMULATIONS OF PYRONINS” (priority 2018, published 2025):
Where two headings read alike, the source gives them in different places.

Key:
[1] = system: methicillin-resistant Staphylococcus aureus (MRSA) strain BAA-1707; experiment: Mouse model of Staphylococcus aureus lung infection (neutropenic pneumonia model); type: in vivo; conditions: 5% dextrose, 10 mM sodium phosphate, minimum dose giving ≥2 log reduction in bacterial burden
Experimental: Female Swiss Webster mice (0.18-0.20 kg) were rendered immunosuppressed by oral gavage for 4 days with cyclophosphamide and were infected by intranasal administration of 1×10^8 colony forming units of methicillin-resistant Staphylococcus aureus (MRSA) strain BAA-1707 (USA-400, MW2). Test compounds in vehicle (5% dextrose in 10 mM sodium phosphate, pH 8.25), positive control in vehicle (vancomycin at 100 mg/kg), and negative control (vehicle only), were administered by intravenous injection into a tail vein (200 μl) 1 h post-infection to provide single intravenous doses of 25, 50, amd 100 mg/kg or by oral gavage (200 μl) 1 h post-infection to provide oral doses of 100, 200, and 400 mg/kg. Mice were euthanized and lungs were harvested and homogenized 24 h post-infection; and viable bacteria were quantified. The effective dose (ED(2 log)) was defined as the minimum test-compound dose resulting in ≥2 log reduction in bacterial burden.

[2] = system: methicillin-resistant Staphylococcus aureus (MRSA) strain BAA-1707; experiment: Mouse model of Staphylococcus aureus systemic infection (peritonitis model); conditions: single dose, 5% dextrose, 10 mM sodium phosphate, pH 7.4, 50% survival at 72 h, read-out: in vivo antibacterial activity: mouse MRSA peritonitis ED50
Experimental: Female Swiss Webster mice ([…]) were experimentally infected by intraperitoneal administration of 1×10^7 colony forming units of methicillin-resistant Staphylococcus aureus (MRSA) strain BAA-1707 (USA-400, MW2) in 5% hog gastric mucin. Test compounds in vehicle (5% dextrose in 10 mM sodium phosphate, pH 7.4), positive control in vehicle (linezolid at 12.5 mg/kg), and negative control (vehicle only), were administered by intravenous injection into a tail vein (200 μl) 0 h post-infection to provide single intravenous doses of 1.56, 3.125, 6.25, 12.5, 25, and 50 mg/kg or by oral gavage (400 μl) 1 h pre-infection to provide single oral doses of 3.125, 6.25, 12.5, 25, 50, and 100 mg/kg. Survival was monitored for 72 h post-infection. Identities of test salts and controls were blinded from personnel performing injections and monitoring survival. The effective dose 50 (ED50) was defined as the test-compound dose resulting in 50% survival at 72 h (calculated using the probit method).

[2H]C([2H])([2H])OC(=O)N/C=C/CCCc1cc([O-])c(C(=O)/C(C)=C/c2cnc(Oc3ccc(F)cc3)s2)c(=O)o1.[Na+] [Example 9]
in vivo antibacterial activity: mouse MRSA pneumonia ED(2 log) ([1]; intravenous, single dose, pH 8.25): 25 mg/kg
in vivo antibacterial activity: mouse MRSA pneumonia ED(2 log) ([1]; oral, pH 7.4): 100 mg/kg
ED50 ([2]; intravenous): 10 mg/kg
ED50 ([2]; oral): 10 mg/kg
